Laboratory results as given in patent US20240076343A1 (CEPHALON, published 2024).

Tests used:
[1] = target: T1, recombinant human CD122 extracellular domain, C-terminal poly-histidine tagged (human, UniProt P14784 27-240); test: BLI (Octet)
T1 construct: also called CD122/IL-2Rβ; IL-2Rβ
T1 sequence: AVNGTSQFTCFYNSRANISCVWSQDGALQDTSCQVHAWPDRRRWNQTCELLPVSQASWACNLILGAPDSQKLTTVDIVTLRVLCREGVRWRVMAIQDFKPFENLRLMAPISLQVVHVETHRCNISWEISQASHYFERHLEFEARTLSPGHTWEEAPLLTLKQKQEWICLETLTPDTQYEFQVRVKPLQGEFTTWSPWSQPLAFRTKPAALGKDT

[2] = target: T2, intermediate-affinity hIL-2 receptor complex (IL-2Rβγ) on TF1+IL-2Rβ cells (human, UniProt P14784 27-551; P31785 23-369); test: cell-based or functional assay
T2 sequence 1: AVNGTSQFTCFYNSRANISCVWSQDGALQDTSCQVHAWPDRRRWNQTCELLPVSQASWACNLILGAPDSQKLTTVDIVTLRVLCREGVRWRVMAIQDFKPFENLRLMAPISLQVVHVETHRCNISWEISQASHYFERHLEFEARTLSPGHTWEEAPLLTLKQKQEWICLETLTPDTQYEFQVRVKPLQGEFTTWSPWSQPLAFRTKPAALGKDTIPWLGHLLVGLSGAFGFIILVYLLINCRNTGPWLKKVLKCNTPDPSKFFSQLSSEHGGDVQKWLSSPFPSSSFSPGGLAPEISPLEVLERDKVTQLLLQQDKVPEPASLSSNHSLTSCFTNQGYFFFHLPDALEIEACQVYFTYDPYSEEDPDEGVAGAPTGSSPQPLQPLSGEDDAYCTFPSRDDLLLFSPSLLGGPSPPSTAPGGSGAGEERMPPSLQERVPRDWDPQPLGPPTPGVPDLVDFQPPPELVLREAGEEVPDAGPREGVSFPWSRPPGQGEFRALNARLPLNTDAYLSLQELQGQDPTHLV
T2 sequence 2: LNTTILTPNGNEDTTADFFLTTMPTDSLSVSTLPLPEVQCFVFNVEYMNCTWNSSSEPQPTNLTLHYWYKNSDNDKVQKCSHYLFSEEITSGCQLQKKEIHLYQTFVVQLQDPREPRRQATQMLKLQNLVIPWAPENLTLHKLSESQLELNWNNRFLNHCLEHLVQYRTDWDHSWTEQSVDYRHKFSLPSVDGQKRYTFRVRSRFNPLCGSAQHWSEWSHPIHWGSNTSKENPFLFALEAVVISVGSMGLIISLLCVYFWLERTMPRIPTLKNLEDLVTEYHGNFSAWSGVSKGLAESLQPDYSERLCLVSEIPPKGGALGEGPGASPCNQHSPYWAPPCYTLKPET

[3] = target: T3, high-affinity hIL-2 receptor (IL-2Rαβγ) on NK-92 cells (human, UniProt P01589 22-272; P14784 27-551; P31785 23-369); test: cell-based or functional assay
T3 sequence 1: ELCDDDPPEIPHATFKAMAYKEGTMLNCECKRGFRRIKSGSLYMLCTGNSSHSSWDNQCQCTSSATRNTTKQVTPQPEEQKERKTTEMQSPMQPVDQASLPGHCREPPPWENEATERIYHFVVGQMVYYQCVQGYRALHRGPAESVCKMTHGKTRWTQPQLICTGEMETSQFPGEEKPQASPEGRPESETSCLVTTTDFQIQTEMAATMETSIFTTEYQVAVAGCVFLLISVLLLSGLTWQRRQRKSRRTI
T3 sequence 2: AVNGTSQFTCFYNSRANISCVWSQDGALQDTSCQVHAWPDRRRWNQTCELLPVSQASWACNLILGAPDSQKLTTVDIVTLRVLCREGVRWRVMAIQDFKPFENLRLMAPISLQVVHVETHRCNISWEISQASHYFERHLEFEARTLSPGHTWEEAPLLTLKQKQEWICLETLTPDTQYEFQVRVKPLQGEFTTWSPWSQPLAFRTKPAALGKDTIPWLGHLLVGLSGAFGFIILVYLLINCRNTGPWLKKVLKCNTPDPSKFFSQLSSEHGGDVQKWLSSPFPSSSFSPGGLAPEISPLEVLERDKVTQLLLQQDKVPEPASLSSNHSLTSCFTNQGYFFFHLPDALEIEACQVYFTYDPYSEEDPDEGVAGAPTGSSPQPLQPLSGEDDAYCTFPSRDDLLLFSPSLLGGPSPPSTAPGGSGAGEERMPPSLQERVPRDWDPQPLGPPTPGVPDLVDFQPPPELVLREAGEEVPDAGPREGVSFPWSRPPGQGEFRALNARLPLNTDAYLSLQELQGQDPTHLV
T3 sequence 3: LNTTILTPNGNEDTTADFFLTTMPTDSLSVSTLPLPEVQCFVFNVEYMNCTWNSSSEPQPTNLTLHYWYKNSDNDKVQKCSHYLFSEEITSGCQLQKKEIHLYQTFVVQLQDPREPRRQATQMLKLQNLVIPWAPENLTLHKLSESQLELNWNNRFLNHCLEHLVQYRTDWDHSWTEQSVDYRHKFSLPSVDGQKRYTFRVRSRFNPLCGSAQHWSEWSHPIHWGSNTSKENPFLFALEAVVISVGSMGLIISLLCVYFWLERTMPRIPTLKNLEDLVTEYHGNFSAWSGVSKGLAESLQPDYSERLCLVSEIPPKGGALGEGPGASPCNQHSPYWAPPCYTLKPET

B1: 1H3-hIgG1-L6-hIL-2 (L72A) (other)
heavy: EVQLVESGGGLVQPGRSLKLSCAVSGFTFSDYAMAWVRQAPKKGLEWVATISYDGSRTYYRDSVKGRFTISRDNAKITLYLQMDSLRSEDTATYYCARHGSGYFDYWGQGVMVTVSS[not shown - about 450 residues with a human IgG1 Fc and changes]
light: DTVLTQSPALAVSPGERVTISCRASESVRTGVHWYQQKPGQQPKLLIYGASNLESGVPARFSGSGSGTDFTLTIDPVEADDTATYFCQQSWNDPFTFGSGTKLEIKRTVAAPSVFIFPPSDEQLKSGTASVVCLLNNFYPREAKVQWKVDNALQSGNSQESVTEQDSKDSTYSLSSTLTLSKADYEKHKVYACEVTHQGLSSPVTKSFNRGEC
notes: Built as m13
B1 showed a Kd [1] of 9.08 nM, a koff [1] of 0.00134 s⁻¹ and a kon [1] of 147000 M⁻¹ s⁻¹. The “Fold change from hIL-2 (TF1 + IL-2Rβ), fixed concentration pSTAT5 screen” value [2] was 1 fold and the “Fold change from hIL-2 (NK-92), fixed concentration pSTAT5 screen” value [3] was 1 fold.

B2: 1H3-hIgG1-L6-hIL-2 (L72F) (other)
heavy: EVQLVESGGGLVQPGRSLKLSCAVSGFTFSDYAMAWVRQAPKKGLEWVATISYDGSRTYYRDSVKGRFTISRDNAKITLYLQMDSLRSEDTATYYCARHGSGYFDYWGQGVMVTVSS[not shown - about 450 residues with a human IgG1 Fc and changes]
light: DTVLTQSPALAVSPGERVTISCRASESVRTGVHWYQQKPGQQPKLLIYGASNLESGVPARFSGSGSGTDFTLTIDPVEADDTATYFCQQSWNDPFTFGSGTKLEIKRTVAAPSVFIFPPSDEQLKSGTASVVCLLNNFYPREAKVQWKVDNALQSGNSQESVTEQDSKDSTYSLSSTLTLSKADYEKHKVYACEVTHQGLSSPVTKSFNRGEC
notes: Built as m13
With B2 the Kd [1] was 5.04 nM, the koff [1] was 0.00115 s⁻¹ and the kon [1] was 228000 M⁻¹ s⁻¹. For the same binder, the “Fold change from hIL-2 (TF1 + IL-2Rβ), fixed concentration pSTAT5 screen” value [2] was 1 fold and the “Fold change from hIL-2 (NK-92), fixed concentration pSTAT5 screen” value [3] was 1 fold.
